± gives the standard deviation. The list shows a part of the results, in another mix than the full data.
These sequences were tested on MIWI (PIWIL1) piRISC loaded with piRNA #1 (30 nt) (assay: pre-steady-state target cleavage rate (min^-1); MIWI and MILI are mouse PIWI proteins and EfPiwi is from a freshwater sponge; tags in brackets are library labels; higher = faster piRNA-guided slicing of the target). Details: guide: piRNA #1 5'p-UGAGGUAGUAGGUUGUAUAGUAUCCAGAGG; auxiliary factor: 500 nM mouse GTSF1.
Method in brief: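 The method was Cleave-'n-Seq, in which uncleaved targets from a transcribed, DNA-blocked target RNA library were sequenced after exposure to active affinity-purified piRISC carrying one synthetic guide, with or without GTSF1 partner protein. Reactions contained 0.1 nM library, 1 nM piRISC and, where present, 500 nM GTSF1 in HEPES–potassium acetate buffer at 33 °C for 0–8 or 0–960 min. Reads were normalised to depth and to weakly complementary targets, three trials were pooled, and k3 was capped at 0.0001 min^-1. The pre-steady-state cleavage rate came from a burst-and-steady-state fit.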

| Sequence | pre-steady-state target cleavage rate |
| --- | --- |
| GGAGAGCAUACUAUACUACCUACUACCUCA | 1.07 ± 0.074 |
| GGAGACCUUACUAUACAACCUACUACAUCA | 1.48 ± 0.084 |
| GCUCUGGAUUCUAUACAACGUACUACCUCA | 0.761 ± 0.048 |
| GGAGACGAUACUAAACAACCAACUACCUCA | 0.105 ± 0.012 |
| GGAGUGGAUAGUAUACAACCUACUAGCUCA | 0.0218 ± 0.0063 |
| CCUCUGGAUUCUAUACAACGUACUACCUCA | 0.768 ± 0.038 |
| GGAGAGGAUACUUUACAACCAACUACCUCA | 0.101 ± 0.0092 |
| CCUCGGAUACUAUACAACCUACUACCUCA | 1.96 ± 0.13 |
| GGAGAGGAUACUAACAACCUACUACCUCA | 1.23 ± 0.068 |
| GGUCUGGAAACUAUACAAGCUACUACCUCA | 1.1 ± 0.058 |
| GGAGACCAUACAAUACAACCUACUACGUCA | 0.511 ± 0.057 |
| CGUCUGGAUACUAUAGAACCUACUACCUCA | 0.382 ± 0.051 |
| GGAGACCUAACUAAAGAACCUACUACCUCA | 0.00442 ± 0.0043 |
| GGAGAGGAUACUAUUCAACCUUCUACCUCA | 0.493 ± 0.021 |
| GGAGACCUAUGAUAUGUUGCUACCUACCUCA | < 0.0001 |
| GGAGACCAUACUAUUCAACGUACUACCUCA | 0.321 ± 0.028 |
| GGAGACCUAUCUUAUCAACCUACUACCUCA | 0.00585 ± 0.003 |
| GGAGACGAUACUAUACAACCAACUAGCUCA | 0.0409 ± 0.0085 |
| CCUCUGGAUACUUAUACAACCUACUACCUCA | 1.7 ± 0.097 |
| GGUCAGGAUACUAUACAACCUAGUACCUCA | 0.346 ± 0.034 |

| Sequence | pre-steady-state target cleavage rate |
| --- | --- |
| GCUCUCGAUACUAUACAACCAACUACCUCA | 0.169 ± 0.018 |
| GGAGACCAUAGUAUACAACGUACUACCUCA | 0.179 ± 0.032 |
| GGUCUGGAUAGUUUACAACCUACUACCUCA | 0.928 ± 0.076 |
| GGAGACCUAACUAUACGACCUACUACCUCA | 0.358 ± 0.045 |
| GCUCUGGAUACUUUACAACCUACUACCACA | 0.971 ± 0.06 |
| GGACUGGAUAGUAUACAACCUACUACGUCA | 0.356 ± 0.044 |
| GCUCUGGAUACUAUACAACCUACUAGGAGA [g6:g29:cont:t1A] | 0.0532 ± 0.012 |
| GGAGAGGAUACUAUACAAACUACUACCUCA | 0.432 ± 0.029 |
| GGAGACCAUACUAUACAACCUACUACCUUA | 1.74 ± 0.13 |
| GGACUGGAUACUAUACUACCUAGUACCUCA | 0.307 ± 0.071 |
| GGACUGGAUACUAUACAACCAACUACCUCA | 0.12 ± 0.012 |
| GGAGACCAAACUAUACAACCAACUACCUCA | 0.0131 ± 0.0057 |
| GCUCUGGAUACUAUACAACCUACUACCGUCA | 1.09 ± 0.071 |
| GGAGACCUAUGAUAUGUUGGUACUACCUCG [g2:g10:cont:t1G] | < 0.0001 |
| GGAGACCUAUGAUUACAACCAUGAUGGAGA [g11:g17:cont:t1A] | < 0.0001 |
| GGACUGGAUACCAUACAACCUACUACCUCA | 1.59 ± 0.13 |
| GGAGACCUAACUAUACAACCUACUACCUCA [g2:g21:cont:t1A] | 1.19 ± 0.14 |
| GGAGACCUAUCUAUACAUCCUACUACCUCA | 0.47 ± 0.042 |
| GGUCUGGUUACUAUACAACCAACUACCUCA | 0.157 ± 0.015 |
| GGAGACCUAUGUAUACAUCCUACUACCUCA | 0.0576 ± 0.0082 |

Reference: the supplement of paper PMC10338343
